Assay results taken from PMC12494564, “CLIC5A binds to and stabilizes the open and active conformation of ezrin” (The Journal of Biological Chemistry, 2025).
Results are given in words; binding and its absence hold for the method and conditions named. For some of these results: In cells and extracts the contact can be indirect. Some results given as binding are weak or reduced against the parent protein; the word gives no strength. Each block holds one substance with its values, some of them ahead of it.

By UniProt entry, the sequences of proteins in these tests, tags left out. Where a name states a change or a piece, a line headed by the entry shows the natural chain unless it says otherwise. Chains listed by the source or under a name are the forms on record and can include a tag or linker. Residues count along the entry.
CLIC5A_(22-251), N-terminal deletion mutant, yeast two-hybrid bait (Q9NZA1, residues 181-410): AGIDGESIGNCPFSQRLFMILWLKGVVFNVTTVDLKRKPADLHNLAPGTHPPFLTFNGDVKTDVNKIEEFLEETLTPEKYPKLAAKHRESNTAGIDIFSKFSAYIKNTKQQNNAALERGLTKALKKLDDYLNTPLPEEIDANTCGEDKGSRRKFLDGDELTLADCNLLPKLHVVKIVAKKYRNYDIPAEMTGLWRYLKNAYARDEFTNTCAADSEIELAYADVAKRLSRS
UniProt P15311: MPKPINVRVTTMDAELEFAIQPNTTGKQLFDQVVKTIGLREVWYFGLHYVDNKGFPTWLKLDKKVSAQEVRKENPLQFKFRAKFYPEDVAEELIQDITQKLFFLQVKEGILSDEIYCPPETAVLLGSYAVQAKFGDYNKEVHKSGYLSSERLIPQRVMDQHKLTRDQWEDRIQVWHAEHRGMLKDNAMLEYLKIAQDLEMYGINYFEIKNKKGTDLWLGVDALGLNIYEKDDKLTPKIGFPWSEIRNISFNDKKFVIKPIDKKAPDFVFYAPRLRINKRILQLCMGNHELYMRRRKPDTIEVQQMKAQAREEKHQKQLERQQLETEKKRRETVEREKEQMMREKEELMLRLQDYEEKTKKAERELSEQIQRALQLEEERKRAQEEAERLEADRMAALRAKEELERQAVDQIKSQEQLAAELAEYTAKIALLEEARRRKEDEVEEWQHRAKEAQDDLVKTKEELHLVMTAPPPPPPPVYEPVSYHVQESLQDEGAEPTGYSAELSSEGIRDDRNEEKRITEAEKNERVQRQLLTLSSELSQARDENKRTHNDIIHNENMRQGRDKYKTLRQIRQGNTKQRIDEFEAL
phosphomimetic GFP-ezrin_(432-586) (T567D) expressed in COS-7 cells (P15311, form named): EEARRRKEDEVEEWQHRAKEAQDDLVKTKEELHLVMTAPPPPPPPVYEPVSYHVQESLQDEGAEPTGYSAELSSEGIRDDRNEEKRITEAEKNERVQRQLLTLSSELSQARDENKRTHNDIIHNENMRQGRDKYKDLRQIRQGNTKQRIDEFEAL
UniProt P35241: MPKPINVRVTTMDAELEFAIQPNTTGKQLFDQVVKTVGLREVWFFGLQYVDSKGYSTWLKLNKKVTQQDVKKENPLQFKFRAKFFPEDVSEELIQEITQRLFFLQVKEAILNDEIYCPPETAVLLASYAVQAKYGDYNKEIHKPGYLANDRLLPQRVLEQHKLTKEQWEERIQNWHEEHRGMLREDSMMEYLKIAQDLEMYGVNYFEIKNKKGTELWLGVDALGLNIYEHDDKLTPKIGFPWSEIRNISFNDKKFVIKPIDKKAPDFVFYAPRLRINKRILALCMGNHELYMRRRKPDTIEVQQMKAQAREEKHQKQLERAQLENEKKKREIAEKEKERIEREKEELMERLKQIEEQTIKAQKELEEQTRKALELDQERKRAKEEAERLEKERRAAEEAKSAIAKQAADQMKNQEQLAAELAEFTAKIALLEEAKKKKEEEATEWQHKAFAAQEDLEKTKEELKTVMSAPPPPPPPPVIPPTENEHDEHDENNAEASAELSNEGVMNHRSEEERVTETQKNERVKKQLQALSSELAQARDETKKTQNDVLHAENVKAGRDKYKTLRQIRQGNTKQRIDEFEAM
UniProt P26038: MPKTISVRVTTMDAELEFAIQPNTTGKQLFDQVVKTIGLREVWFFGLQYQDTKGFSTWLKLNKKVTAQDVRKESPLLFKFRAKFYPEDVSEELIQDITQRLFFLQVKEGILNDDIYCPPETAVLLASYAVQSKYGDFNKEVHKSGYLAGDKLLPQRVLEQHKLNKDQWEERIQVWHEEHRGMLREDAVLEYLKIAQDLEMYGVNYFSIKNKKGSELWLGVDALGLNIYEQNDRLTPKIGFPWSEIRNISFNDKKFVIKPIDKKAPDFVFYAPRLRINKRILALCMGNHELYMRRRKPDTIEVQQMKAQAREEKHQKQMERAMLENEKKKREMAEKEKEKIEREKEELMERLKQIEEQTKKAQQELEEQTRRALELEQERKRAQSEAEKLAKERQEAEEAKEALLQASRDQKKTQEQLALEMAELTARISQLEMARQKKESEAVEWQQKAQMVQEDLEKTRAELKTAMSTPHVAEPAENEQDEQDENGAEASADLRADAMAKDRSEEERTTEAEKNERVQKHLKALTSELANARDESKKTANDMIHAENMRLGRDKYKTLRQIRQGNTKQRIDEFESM
UniProt P26043, residues 330-583: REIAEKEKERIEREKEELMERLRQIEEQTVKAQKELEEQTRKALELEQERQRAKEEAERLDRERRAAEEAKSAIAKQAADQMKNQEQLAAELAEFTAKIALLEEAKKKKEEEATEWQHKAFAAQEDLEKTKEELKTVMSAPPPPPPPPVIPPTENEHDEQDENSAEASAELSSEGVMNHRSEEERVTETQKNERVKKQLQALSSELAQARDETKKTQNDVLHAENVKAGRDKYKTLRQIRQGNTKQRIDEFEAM

Experiments:
GST-CLIC5A (human) [1] = target: GST-CLIC5A (human) (UniProt Q9NZA1); assay: pull-down; GST-CLIC5A with glutathione beads, 2 h in the cold room, with cell lysates holding endogenous or transiently expressed proteins; lysis buffer 1% Triton X-100, 20 mM Hepes pH 7.4, 0.6 M KCl, 1 mM EDTA; some cells treated with calyculin A (50 nM) before lysis; Western blot; only the target purified
GST-CLIC5A (human) [2] = target: GST-CLIC5A (human) (UniProt Q9NZA1); assay: pull-down; immobilized GST-CLIC5A with HA-ezrin fragments produced by in vitro transcription/translation; Western blot; only the target purified
[3] = target: GFP-CLIC5A expressed in COS-7 cells (human) (UniProt Q9NZA1); assay: co-IP; HA-ezrin constructs coexpressed with GFP-CLIC5A in COS-7 cells; goat anti-GFP antibody and protein G plus/protein A-agarose; lysis buffer 50 mM Tris-HCl pH 7.4, 150 mM NaCl, 1.0% NP-40, 0.5% sodium deoxycholate, 100 nM calyculin-A
[4] = target: CLIC5A, full length (aa 1-251), yeast two-hybrid bait (human) (UniProt Q9NZA1); assay: two-hybrid; GAL4-based Matchmaker Gold Y2H; CLIC5A constructs as bait (pGBKT7, Y2HGold), ERM constructs as prey (pGAD-T7, Y187), mated; DDO, DDO/X (X-α-Gal) and DDO/X/A (aureobasidin A) plates, 30 °C
[5] = target: CLIC5A_(1-232), C-terminal deletion mutant, yeast two-hybrid bait (human) (UniProt Q9NZA1); assay: as above
[6] = target: CLIC5A_(22-251), N-terminal deletion mutant, yeast two-hybrid bait (human) (UniProt Q9NZA1); assay: as above
[7] = target: CLIC5A, bait of the Hybrigenics yeast two-hybrid screen (human) (UniProt Q9NZA1); assay: two-hybrid; yeast two-hybrid protein domain screen by Hybrigenics; CLIC5A as bait, adult mouse kidney library as prey

- binding (GST-CLIC5A (human) [1]): no binding
Substance: GFP-ezrin_(432-570) expressed in COS-7 cells (from UniProt P15311 432-570) (domain or fragment)

- binding (GST-CLIC5A (human) [1]): binds
Substance: GFP-ezrin_(432-586) expressed in COS-7 cells (from UniProt P15311 432-586) (domain or fragment)

- binding (GST-CLIC5A (human) [2]): no binding
Substance: HA-ezrin_(432-570), in vitro transcribed and translated (from UniProt P15311 432-570) (domain or fragment)

- binding [3]: binds
Substance: HA-ezrin_(432-586) expressed in COS-7 cells (from UniProt P15311 432-586) (domain or fragment)

- binding [4]: no binding
Substance: N-terminal FERM domain of ezrin (ezrin_(1-296)), yeast two-hybrid prey (from UniProt P15311 1-296) (domain or fragment)

- binding (GST-CLIC5A (human) [1]): binds
Substance: endogenous radixin of HeLa cells (from UniProt P35241 1-583)

- binding [4]: no binding
Substance: ezrin_(432-570), ezrin C terminus without the last 16 amino acids, yeast two-hybrid prey (from UniProt P15311 432-570) (domain or fragment)

- binding [4]: binds
- binding [5]: no binding
- binding [6]: no binding
Substance: ezrin_(432-586), yeast two-hybrid prey (from UniProt P15311 432-586) (domain or fragment)

- binding [4]: binds
Substance: moesin_(432-577), yeast two-hybrid prey (from UniProt P26038 432-577) (domain or fragment)

- binding [4]: binds
Substance: radixin_(432-583), yeast two-hybrid prey (from UniProt P35241 432-583) (domain or fragment)

The remaining lines, values behind:

Substance: HA-ezrin_(297-586), in vitro transcribed and translated (from UniProt P15311 297-586) (domain or fragment)
- binding (GST-CLIC5A (human) [2]): binds

Substance: HA-ezrin_(432-570) expressed in COS-7 cells (from UniProt P15311 432-570) (domain or fragment)
- binding [3]: no binding

Substance: HA-ezrin_(432-586), in vitro transcribed and translated (from UniProt P15311 432-586) (domain or fragment)
- binding (GST-CLIC5A (human) [2]): binds

Substance: endogenous moesin of HeLa cells (from UniProt P26038 1-577)
- binding (GST-CLIC5A (human) [1]): binds

Substance: ezrin_(550-586), yeast two-hybrid prey (from UniProt P15311 550-586) (domain or fragment)
- binding [4]: binds weakly

Substance: phosphomimetic GFP-ezrin_(432-586) (T567D) expressed in COS-7 cells (from UniProt P15311 432-586) (domain or fragment)
- binding (GST-CLIC5A (human) [1]): binds

Substance: radixin C-terminal domain (aa 330-583), prey from the mouse kidney library (from UniProt P26043 330-583) (domain or fragment)
- binding [7]: binds
